Whole data set: some 110,000 compounds, median “z-score” near -0.1, cut for the highest 2% near 2. The list shows a part of the results. Active and inactive are the calls of the source.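 The calls were made as follows: active = z-score in the third read window above 3 or below -3; inactive = the rest.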
These molecules were tested against Metabotropic glutamate receptor 8 (Rattus norvegicus) (UniProt P70579) (assay: mGluR8 Gi/Go-coupled signaling modulation – cell-based, rat, thallium flux, HTS, primary screen (AID 488969)). Settings: HEK293 rat mGluR8, GIRK (G protein-gated inwardly rectifying potassium channel) thallium flux, FluoZin2; at 10 µM; stronger effect = higher value; submaximal glutamate (EC20) added with thallium.
Sequence of UniProt P70579 (P70579 whole entry, looked up): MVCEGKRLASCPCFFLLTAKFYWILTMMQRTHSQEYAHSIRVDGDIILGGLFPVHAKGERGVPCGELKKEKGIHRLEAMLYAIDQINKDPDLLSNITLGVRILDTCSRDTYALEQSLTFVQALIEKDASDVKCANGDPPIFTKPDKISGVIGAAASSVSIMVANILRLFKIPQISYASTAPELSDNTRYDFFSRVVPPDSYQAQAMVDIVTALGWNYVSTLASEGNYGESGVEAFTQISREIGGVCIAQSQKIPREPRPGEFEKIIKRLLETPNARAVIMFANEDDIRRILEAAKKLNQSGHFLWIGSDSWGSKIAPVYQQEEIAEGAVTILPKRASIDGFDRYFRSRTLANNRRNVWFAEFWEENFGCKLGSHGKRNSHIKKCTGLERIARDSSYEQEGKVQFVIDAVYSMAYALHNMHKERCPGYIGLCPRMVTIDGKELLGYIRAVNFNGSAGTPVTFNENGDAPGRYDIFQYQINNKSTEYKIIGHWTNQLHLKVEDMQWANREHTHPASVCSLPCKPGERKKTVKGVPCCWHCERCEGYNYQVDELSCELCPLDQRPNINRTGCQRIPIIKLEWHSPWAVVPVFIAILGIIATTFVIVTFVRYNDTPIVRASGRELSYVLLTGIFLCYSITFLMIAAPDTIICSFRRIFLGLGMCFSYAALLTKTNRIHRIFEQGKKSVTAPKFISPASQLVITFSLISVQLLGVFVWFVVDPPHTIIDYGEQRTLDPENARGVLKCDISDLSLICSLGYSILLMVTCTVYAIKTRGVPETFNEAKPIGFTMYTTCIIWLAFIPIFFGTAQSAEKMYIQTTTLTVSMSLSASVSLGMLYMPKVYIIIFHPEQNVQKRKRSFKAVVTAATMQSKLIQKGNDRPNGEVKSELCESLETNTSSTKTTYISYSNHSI
CCOC(=O)C(CC)n1cnc2c(nnn2-c2ccc(C)cc2)c1=O (configuration not stated) was tested, and the z-score was -0.636.
Molecule CC12CN3CCN(CC(C3)/C1=N\N=C1/C3CN4CCN(C3)CC1(C)C4)C2 has a z-score of -0.673.
With Cc1ccc(NC(=S)N/C(=N/S(=O)(=O)c2ccccc2)c2ccccc2)cc1 the z-score was 1.36.
Molecule O=C(c1ccccc1)N1CCC(c2nc(-c3ccc(S(=O)(=O)N4CCOCC4)cc3)no2)CC1 has a z-score of -0.281.
With Cc1nc2c(sc3nc4c(cc32)COC(C)(C)C4)c(=O)n1Cc1ccccc1 the z-score was -0.288.
O=C(Cc1ccccc1)N/N=C/c1cccs1 was tested, and the z-score was -0.0533.
COc1cc(C(C)=O)ccc1Oc1ncnc2c1cnn2-c1cccc(Cl)c1 gave a z-score of -0.276.
c1ccc(CSc2nnnn2-c2ccccc2)cc1 gave a z-score of -0.542.
Work on CCn1c(O)c(N=NC(=O)C2C(=O)NCC2c2ccccc2)c2ccccc21 (configuration not stated) yielded a z-score of -1.27.
In the case of CCN1C(=O)/C(=C2\C=Cc3ccccc3N2CC)SC1=S, the z-score is reported as -0.394.
Cc1ccc(C)c(Cc2c(C)nc(C)[nH]c2=O)c1 gave a z-score of -0.437.
O=C1NCCNC1(c1c[nH]c2ccccc12)C(F)(F)F (configuration not stated) showed a z-score of 0.109.
With CC(Oc1ccccc1)C(=O)Nc1nc2c(s1)C(=O)CC(C)(C)C2 (configuration not stated) the z-score was -0.467.
In the case of CCC(NC(=O)Nc1nnc(C(F)(F)F)s1)(C(F)(F)F)C(F)(F)F, the z-score is reported as 0.241.
In the case of COc1ccc(N2CCN(C(=O)Cc3cccs3)CC2)cc1, the z-score is reported as -0.253.
Molecule CCOC(=O)N1CCN(C(=O)c2cn(CC(C)C)c(=O)c3c2c2ccccc2n3C)CC1 has a z-score of 0.017.
Molecule Nc1ccccc1C(=O)N(Cc1ccccc1)Cc1ccccc1 has a z-score of -0.434.
Molecule O=C(NC1CCCC1)c1ccc(S(=O)(=O)N2CCCC2)cc1 has a z-score of -0.088.
With Cc1ccnc(NC(=O)c2ccc(N3C(=O)CCC3=O)cc2)c1 the z-score was 1.29.
Molecule C=CCNc1nc(-c2ccccn2)nnc1-c1ccccc1 has a z-score of 0.406.
For Cc1cc(C)cc(OCC(=O)Nc2cccc(-c3nc4ncccc4o3)c2)c1, the z-score was -0.0133.
For Cc1occc1-c1nnc(SCC(=O)Nc2ccccc2-c2ccccc2)n1C, the z-score was 0.802.
For Cc1ccc(C(=O)Cn2ncsc2=N)cc1, the z-score was 0.0685.
In the case of CC(SC(=S)N(C)Cc1cccs1)C(=O)O (configuration not stated), the z-score is reported as 0.108.
With CCOC(=O)Nc1ccc2c(c1)N(C(=O)CN(CC)CC)c1ccccc1C=C2 the z-score was 0.6.
Molecule O=C1CC(=C(c2ccccc2)c2ccccc2)C(=O)N1CCCCN1CCN(c2ccccc2)CC1 has a z-score of 0.472.
COc1ccc(N(C(=O)c2cnccn2)C(C(=O)NC2CCCCC2)c2ccc(Cl)cc2)cc1 (configuration not stated) gave a z-score of -0.0526.
In the case of CCC(c1nnnn1Cc1ccc(F)cc1)N1CCN(C2CCCCC2)CC1 (configuration not stated), the z-score is reported as 0.911.
O=C(NC(Cc1ccccc1)c1nc2ccccc2[nH]1)C1CC(=O)N(c2ccc3c(c2)OCCO3)C1 (configuration not stated) gave a z-score of -0.449.
For CC12CCC(C(=O)NCC3CCCO3)(OC1=O)C2(C)C (configuration not stated), the z-score was -0.214.
Cc1ccc(SCC(=O)NC(=O)Nc2ccc3c(c2)OCCO3)c(C)c1 showed a z-score of -0.065.
Work on Cc1cc(OCCN2CCOCC2)nc2ccccc12 yielded a z-score of -0.295.
In the case of N#Cc1c(NC(=O)/C=C/c2ccco2)sc2c1CCCC2, the z-score is reported as -0.0129.
Cc1ccccc1C(=O)Oc1ccc(Sc2ccc(O)cc2)cc1 showed a z-score of -0.112.
For Cc1ccc(N(C)S(=O)(=O)c2cccc(C(=O)NC3=NCCS3)c2)cc1, the z-score was 0.0685.
Work on COc1ccc(NC(=S)NN2CCOCC2)cc1OC yielded a z-score of -0.21.
Cc1noc(C)c1C(c1ccccc1)c1ccccc1 was tested, and the z-score was -0.172.
Work on CCn1c(SCc2nc3ccccc3[nH]2)nnc1-c1cccnc1 yielded a z-score of -0.0726.
Work on Nc1ccccc1Nc1cc(-c2ccccc2)nn1-c1cccc(Cl)c1 yielded a z-score of -0.443.
Molecule O=C(Cc1nnc(NC(=O)c2ccccc2)s1)N/N=C/c1ccco1 has a z-score of -0.0768.
In the case of O=C(OCC(=O)N1CCc2ccccc2C1)c1cccc([N+](=O)[O-])c1, the z-score is reported as -0.292.
For CCOC(=O)Cn1c(=O)cnc2ccccc21, the z-score was -0.646.
Work on COc1ccc(OC)c2c(C)cc(N3CCCN(C)CC3)nc12 yielded a z-score of 0.252.
Work on CCOc1ccc(Nc2n[nH]c(=S)s2)cc1 yielded a z-score of 0.381.
Work on CCOC(=O)c1ccc2cccc(C)n2c1=O yielded a z-score of -0.0925.
Molecule Cc1cccc(C)c1NC(=O)CCCSc1nnnn1C has a z-score of -1.66.
CN(Cc1ccccc1)C(=S)Nc1ccc(OC(F)F)cc1 was tested, and the z-score was -0.193.
CCc1cccc(NC(=O)CSC2=NS(=O)(=O)c3ccccc32)c1 was tested, and the z-score was active: 3.52.
O=C(CC1SC(=NCC2CCCO2)NC1=O)Nc1cccc2ccccc12 (configuration not stated) gave a z-score of -0.724.
Cc1ccc([N+](=O)[O-])cc1NC(=O)c1ccc(C(C)(C)C)cc1 showed a z-score of -1.53.
Work on Cc1cc(NC(=O)Cc2csc(-c3ccccc3)n2)ccc1Br yielded a z-score of -0.317.
In the case of CCOc1ccc(OCC)c(NC(=O)CN2CCN(C(=O)c3ccco3)CC2)c1, the z-score is reported as 0.342.
CCOc1cc(NS(=O)(=O)c2ccc(NC(C)=O)cc2)c(OCC)cc1NC(=O)c1cccs1 showed a z-score of -0.155.
In the case of c1ccc(CNn2nnnc2-c2ccccc2)cc1, the z-score is reported as 0.451.
Work on Cc1cc(C(=O)O)c(C)n1-c1ccccc1 yielded a z-score of 0.165.
With O=C(CSCCO)Nc1cccc([N+](=O)[O-])c1 the z-score was -1.53.
With O=C(CNC(=S)N(CCCN1CCOCC1)Cc1cccs1)NCCCN1CCOCC1 the z-score was 0.295.
Cc1cc(OCC(=O)c2ccc(Br)cc2)ccc1N1C(=O)CCC1=O gave a z-score of 0.164.
With CN1/C(=C\C(=O)c2ccco2)C(C)(C)c2ccccc21 the z-score was -0.359.
Cc1onc(-c2ccccc2Cl)c1C(=O)N1C=CC(C(F)(F)Cl)=NCC1 showed a z-score of -0.0476.
CC(C)(C)C(=O)Cn1ncc(NC2CC2)c(Br)c1=O gave a z-score of -0.0684.
In the case of CNC(=S)N1CCN(c2c(F)cc3c(=O)c(C(=O)O)cn(C4CC4)c3c2OC)CC1C (configuration not stated), the z-score is reported as -0.537.
Cc1cccc2cc(CN(Cc3ccccc3)C(=O)N(C)C)c(=O)[nH]c12 gave a z-score of -0.295.
Work on C/C(CC(=O)Nc1ccc2ccccc2c1)=N\NC(=O)c1cnccn1 yielded a z-score of -0.0823.
O=C(NNC(=S)NC(=O)C12CC3CC(CC(C3)C1)C2)c1ccncc1 was tested, and the z-score was 0.609.
N/C(Cc1ccc(Cl)cc1)=N\OC(=O)c1ccc2ccccc2c1 showed a z-score of 0.0736.
Cc1ccc(NS(=O)(=O)c2ccc(NC(=O)C3CCCO3)cc2)cc1 (configuration not stated) was tested, and the z-score was 0.664.
Work on Cc1cccn2c(=O)c3cc(C(=O)N4CCN(C(=O)c5ccco5)CC4)n(C)c3nc12 yielded a z-score of -1.28.
Cc1cccn2c(=O)c(/C=C(\C#N)C(N)=O)c(N3CCN(Cc4ccc5c(c4)OCO5)CC3)nc12 gave a z-score of -0.0419.
Molecule Clc1ccc(-c2nc3ccncc3[nH]2)cc1 has a z-score of 0.48.
O=C(c1cccnc1)N1CCN(C(=O)c2cccs2)CC1 showed a z-score of -1.34.
CC(C)CC(=O)OC1C(N2CCOCC2)c2c(ccc(/C=C/C(=O)N3CCOCC3)c2O)OC1(C)C (configuration not stated) showed a z-score of -0.311.
Work on Cc1ccc2c(c1)c(C)c(C)n2CC(O)CN1CCCCC1C (configuration not stated) yielded a z-score of 0.526.
COc1ccc(NC(=O)NN(C(=O)c2ccccc2)C(C)(C)C)cc1 was tested, and the z-score was -0.214.
Molecule C=CCOc1ccc(C=Nc2ccc(C)c(Cl)c2)c(O)c1 has a z-score of -0.435.
CCOC(=O)c1c(NC(=O)Nc2ccc(Cl)cc2)sc(C)c1C was tested, and the z-score was -0.143.
For COC(=O)c1cc(-c2ccccc2)sc1NC(=O)c1cc(C)on1, the z-score was -0.11.
In the case of CCCC(=O)O[C@H]1C[C@@H](C)N(C(=O)c2ccccc2)c2ccc(C)cc21, the z-score is reported as -0.936.
In the case of O=C(CSc1nnc(C2CCCCC2)n1-c1ccccc1)NCc1ccco1, the z-score is reported as -0.483.
With O=S(=O)(Cc1ccccc1Cl)N1CCCCC1 the z-score was -1.07.
With CC(C)CC(=O)NCCNC(=O)c1cc(OCC(F)(F)F)ccc1OCC(F)(F)F the z-score was 0.303.
O=C(c1ccc(S(=O)(=O)c2ccccc2)cc1)N1CCc2ccccc2C1 was tested, and the z-score was -0.983.
For CC(=O)N(Cc1cc(=O)[nH]c2ccccc12)c1cccc(C)c1, the z-score was -0.204.
For NC(=O)Cn1cc(C(=O)c2cccs2)c2ccccc21, the z-score was -0.0354.
For CC(C)C(C(=O)N1CCOCC1)N1C(=O)c2ccccc2C1=O (configuration not stated), the z-score was 0.147.
CN(C)S(=O)(=O)c1ccc2c(c1)nc1n2CCC1 was tested, and the z-score was 0.423.
With O=C(CCN1CCN(c2ccccc2)CC1)Nc1ccccc1F the z-score was -0.185.
Molecule NC(=O)c1ccccc1NC(=O)/C=C/c1cccc(Cl)c1 has a z-score of -0.189.
COc1ccc(-c2nc(CSCC(=O)NCc3ccc4c(c3)OCO4)c(C)o2)cc1 showed a z-score of -0.196.
O=C(c1ccc(COc2ccccc2Cl)o1)N1CCN(Cc2ccc3c(c2)OCO3)CC1 gave a z-score of 0.102.
COc1ccccc1NC(=O)COc1ccc(CO)cc1Cl showed a z-score of -1.6.
CC(=O)N1c2ccccc2C(C)CC12CCCCC2 (configuration not stated) gave a z-score of -0.188.
Molecule COc1ccc(Oc2nnc(-c3ccccc3)cc2C#N)cc1 has a z-score of -0.0586.
Molecule CCOC(=O)NC(=O)/C(C#N)=N/Nc1ccc(F)cc1 has a z-score of -0.295.
Molecule COCCn1c(Cc2ccccc2)nnc1SCC(=O)NC(C)(C)C has a z-score of -0.195.
With CC(=O)N1CCC(C(=O)c2ccc(Cl)cc2)CC1 the z-score was 0.113.
In the case of CCOC(=O)NC(Nc1nnc(C)s1)(C(=O)OCC)C(F)(F)F (configuration not stated), the z-score is reported as 0.168.
Work on COc1ccc(NS(=O)(=O)c2ccc3nc(COc4ccc5ccccc5c4)[nH]c3c2)cc1 yielded a z-score of -0.421.
Work on COCC(C)n1c(SCc2ccc(C(=O)OC)o2)nc2ccccc2c1=O (configuration not stated) yielded a z-score of -0.54.
CC(C)(C)NC(=O)NC(=O)COC(=O)c1ccc2c(c1)S(=O)(=O)N=C1CCCCCN12 showed a z-score of -0.0528.
Work on O=C(COC(=O)COc1ccccc1Cl)Nc1ccccc1OC(F)F yielded a z-score of -0.428.
Cc1cnc(NC(=O)CSc2nnc(Cc3ccccc3)n2C)s1 was tested, and the z-score was -0.0432.
For O=C(O)c1cccc(C(=O)Cc2ccccc2)c1, the z-score was -0.369.
With CCOc1ccc(OCC)c(NC(=O)CSc2nnnn2CC)c1 the z-score was 0.212.
Work on Cc1ccc(NC(=S)C2=C(O)c3sccc3N(C)S2(=O)=O)cc1 yielded a z-score of 0.0742.
Molecule CCOc1ccc(-n2c(=O)cc(N3CCN(c4ccccc4)CC3)[nH]c2=O)cc1 has a z-score of 0.106.
COCCNC(=O)c1onc(CSc2cccc(Cl)c2)c1C(=O)O showed a z-score of -0.0118.
N#Cc1c(N2CCOCC2)nc(-c2ccco2)c2c1CCCC2 showed a z-score of -0.0657.
Molecule CCC(C)NC(=O)CNC(=S)N(CCCN1CCOCC1)Cc1cccs1 (configuration not stated) has a z-score of -0.563.
For COc1c(C)cc(Br)cc1C(=O)Nc1ccc(N2CCN(S(C)(=O)=O)CC2)cc1, the z-score was -0.208.
In the case of Cc1nn(-c2ccccc2)c(N2CCCC2)c1/C=N/NC(=O)c1cc(-c2cccnc2)nc2ccccc12, the z-score is reported as -0.311.
For CCC1NC(=S)N(C2CCCCC2)C1=O (configuration not stated), the z-score was -0.196.

Source: PubChem BioAssay AID488969 (Vanderbilt High Throughput Screening Facility, 2010)
